# Reference: PubChem BioAssay AID686978 (National Center for Advancing Translational Sciences (NCATS), 2013)
# Hit rate of the full screen: of about 420,000 compounds, about 64,000 (15%) were called active. The inconclusive results got no clear call from the source; some entries with a clear call stand among them for comparison. The call rests on the fitted dose curve; in most records, active means well fitted inhibition curve with a large enough effect; inconclusive means small, poorly fitted or top-dose-only effect; inactive means flat fitted curve, though single readings scatter. No potency is given beside an inconclusive call; the fits are too rough.
# Assay: qHTS for Inhibitors of human tyrosyl-DNA phosphodiesterase 1 (TDP1): qHTS in cells in absence of CPT; further: nearly all actives have a fitted effect of over 55% in size
# Settings: DT40 Tdp1-/- hTDP1 cells, no CPT, ATP luminescence, 48 h; activity change, negative = growth inhibition: at 46.2 µM (top of the series)
# Method in brief: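 Chicken DT40 Tdp1-/- cells complemented with human TDP1, screened without camptothecin (DMSO vehicle only), 400 cells/well. Compounds pin-transferred, cells incubated at 37 °C for at least 48 hr. Growth read as ATP-dependent luminescence (CellTiter-Glo, 30 min at RT).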
# On the % scale 0 is the no-effect control and ±100 the full control effect; potency means the concentration at half of the fitted maximal effect; tags describe the fitted curve by direction and shape.
Compound,Potency,"activity change, negative = growth inhibition"
CC(C)(C)CC(=O)Nc1cc2c3c(c1)CCC(=O)N3CCC2,inactive,
CCn1cc(C(=O)N2CCN(c3ccccc3F)CC2)c(=O)c2cc(S(=O)(=O)N(C)C)ccc21,"inconclusive [inhibitor, partial curve]",
CC(=O)Cc1nsc(NC(=O)c2cccc(F)c2)n1,"inconclusive [inhibitor, single point]",
Cc1ccc(Cn2c(=N)n(CC(=O)c3ccc([N+](=O)[O-])cc3)c3ccccc32)cc1,active: 2.91 µM,
CCOc1cccc(C(=O)NC(=S)NCc2cccnc2)c1,,inconclusive: -36% [inhibitor]
COc1ccc(CNc2oc(-c3ccc(COc4ccccc4C)o3)nc2C#N)cc1,"inconclusive [inhibitor, single point]",
O=C(O)c1ccc(C=NNC(=O)c2cccc3ccccc23)cc1,"inconclusive [inhibitor, full curve]",
CCn1cc(C2=NOC(C(=O)Nc3cc(OC)c(Cl)cc3OC)C2)c(C)n1 (stereo not drawn),"inconclusive [inhibitor, partial curve]",
CC(C)CCNC(=O)CN(C(=O)CCC(=O)Nc1ccccn1)c1ccc2c(c1)OCO2,"inconclusive [inhibitor, single point]",
O=C(NCC(=O)N1CCN(c2ccccc2O)CC1)c1ccccc1,inactive,
CCOc1cccc(/C=N/NS(=O)(=O)c2ccc(C)c([N+](=O)[O-])c2)c1O,inactive,
C/C(=N\NC(=O)Cc1cc(=O)[nH][nH]1)c1cccc([N+](=O)[O-])c1,inactive,
COC(=O)[C@H](C(C)C)N(Cc1ccccc1)S(=O)(=O)CCN1CCCC1,"inconclusive [inhibitor, single point]",
CC1=C(c2ccc(C)cc2)S(=O)(=O)NC1=NCCCN1CCN(c2ccc(F)cc2)CC1,active: 14.6 µM,
CC(=O)N/C(=N/c1nc(C)cc(C)n1)Nc1cccc(C)c1C,"inconclusive [inhibitor, single point]",
O=C(COc1ccccc1O)Nc1ccc(Cl)cc1,,inconclusive: -31.3% [inhibitor]
O=C(c1cc(COc2c(F)cccc2F)on1)N1CCC(c2ccccc2Cl)C1 (stereo not drawn),inactive,
CCOC(=O)Cn1ncc2c3ccccc3n(CC(=O)OCC)c2c1=O,inactive,
Cc1ccc(NC(=O)CSc2nc(-c3ccco3)cc(C(F)(F)F)n2)cc1,active: 3.26 µM,
COc1ccc(CN2CCNC(=O)C2CC(=O)NCCN2CCCCC2=O)c(F)c1 (stereo not drawn),inactive,
CCOC(=O)C1(CCOc2ccccc2)CCN(Cc2ccc(OC)cc2)CC1,active: 20.6 µM,
Cc1ccc(NC(=O)CN2C(=O)CCSc3ccc(S(=O)(=O)N4CCCC4)cc32)cc1C,"inconclusive [inhibitor, single point]",
O=C1C(Br)=Cc2cccc3cccc1c23,inactive,
CCCOc1ccc(C2C3=C(Nc4nc(N)[nH]c(=O)c42)c2ccccc2C3=O)cc1 (stereo not drawn),"inconclusive [inhibitor, single point]",
C=CCn1cccc(C(=O)Nc2cc(OC)cc(OC)c2)c1=O,"inconclusive [inhibitor, single point]",

Compound,Potency,"activity change, negative = growth inhibition"
CCOc1ccccc1NC(=O)c1cc2ccccc2oc1=O,inactive,
Cn1cccc1C(=O)N1CCC2(CC1)CN(C(=O)Nc1cccc(C#N)c1)C2,"inconclusive [inhibitor, partial curve, poor fit]",
c1cc2c(cc1C1=NNC(=NC3CC3)SC1)OCCO2,active: 16.4 µM,
Cn1cccc1C(=O)N1CCC[C@@]2(CCN(c3cccc(-c4ccccc4)c3)C2)C1,"inconclusive [inhibitor, single point]",
COc1cc(OC)cc(-c2c(-c3cccs3)c3cc(-c4ccc(OCc5ccccc5)cc4)ccc3n2C)c1,inactive,
O=C(Cc1ccc(-n2cccc2)cc1)NCc1cccs1,active: 1.03 µM,
O=C(c1ccc(COc2ccc(Cl)cc2)o1)N1CCN(Cc2ccc3c(c2)OCO3)CC1,active: 11.2 µM,
CCOc1ccc(-n2nc3ccc(NC(=O)COc4ccc(OC)cc4)cc3n2)cc1,"inconclusive [inhibitor, partial curve]",
O=C(Nc1nn[nH]n1)c1cc(-c2ccc(Cl)c(Cl)c2Cl)nc2ccccc12,inactive,
Cc1ccc(NC(=O)Nc2nnc(N(C)Cc3ccccc3)s2)c(C)c1,,inconclusive: -33% [inhibitor]
CCN(CC)c1ccc(NC(=O)CSc2nc(-c3cccs3)cc(C(F)(F)F)n2)cc1,"inconclusive [inhibitor, single point]",
CCCCn1nnnc1C(c1cc2ccccc2o1)N1CCN(c2cc(C)nc3ccccc23)CC1 (stereo not drawn),"inconclusive [inhibitor, single point]",
Cc1cc(SCC(=O)Nc2ccccc2)n2ncc(-c3ccccc3)c2n1,inactive,
CCN(CC)c1ccc(NS(=O)(=O)c2cc3[nH]c(=O)c(=O)[nH]c3cc2C)c(C)c1,"inconclusive [inhibitor, single point]",
Cn1cc(Cl)c(C(=O)NNC(=S)NCc2ccco2)n1,"inconclusive [inhibitor, partial curve]",
CC(Oc1ccc(F)cc1)C(=O)Nc1cccc(-c2nn[nH]n2)c1 (stereo not drawn),inactive,
Cc1ccc(S(=O)(=O)NCCCCCC(=O)Nc2cccc(C)c2)cc1,"inconclusive [inhibitor, single point]",
O=C(NCc1ccccn1)/C(=N/O)c1ccccc1,active: 14.6 µM,
Fc1cc(F)c(F)c(SCCc2ccncc2)c1F,"inconclusive [inhibitor, single point]",
Cn1c(=O)[nH]c(=O)c2c1nc(N1CCCC1)n2CC(O)COc1ccccc1 (stereo not drawn),inactive,
O=c1c2ccc(F)cc2sn1-c1ccccc1,active: 2.91 µM,
CCc1nc(Oc2cccc(F)c2)c2oc3ccccc3c2n1,"inconclusive [inhibitor, single point]",
COc1ccccc1OCCOc1ccc(/C=C2/C(=N)N3OC(C)=CC3=NC2=O)cc1OC,"inconclusive [inhibitor, partial curve]",
CC(=O)N1CCc2c(sc3nc(SCC(C)C)n(-c4ccc(F)c(Cl)c4)c(=O)c23)C1,"inconclusive [inhibitor, single point]",
Cc1cc(C(=O)Nc2cccc(-c3nc(CNC(=O)c4ccccc4C(F)(F)F)c(C)o3)c2)c(C)o1,active: 20.6 µM,

Compound,Potency,"activity change, negative = growth inhibition"
O=C(Nc1ncccc1O)C1CCN(S(=O)(=O)c2ccc3ccccc3c2)CC1,inactive,
Cc1ccc(C)c(Cn2c(C3CC(=O)N(c4ccccc4C)C3)nc3ccccc32)c1 (stereo not drawn),active: 20.6 µM,
Cc1ccccc1NC(=O)c1ccccc1,inactive,
CN(C)S(=O)(=O)c1ccc(N2CCCC2)c(C(=O)Nc2ccccc2Br)c1,"inconclusive [inhibitor, single point]",
O=C(Cc1ccc(Br)cc1)NC1CCCc2ccccc21 (stereo not drawn),"inconclusive [inhibitor, single point]",
Cc1ccc(-n2c(SCC(=O)NCCN3C(=O)CSC3=O)nnc2-c2ccccc2)cc1,inactive,
COc1cc(C(=O)OCC(=O)NCC2CCCCC2)ccc1OCC(C)C,"inconclusive [inhibitor, single point]",
CCN(CC)c1ccc(-c2nc(-c3ccccc3C)no2)cc1[N+](=O)[O-],"inconclusive [inhibitor, partial curve]",
O=C(NCCc1ccccc1Cl)c1ccc2c(c1)nc1n2CCCCC1,"inconclusive [inhibitor, single point]",
NCC/C=C1/c2ccccc2CSc2ccccc21,active: 35.5 µM,
COc1ccc(C(=O)NC(C)CCc2ccccc2)c(OC)c1 (stereo not drawn),"inconclusive [inhibitor, single point]",
CCCCNC(=O)c1nc(-c2cnccn2)oc1-c1ccc(Cl)cc1,"inconclusive [inhibitor, single point]",
Fc1ccc(CN(Cc2ccccc2)C(c2cccs2)c2nnnn2C2CCCCC2)cc1 (stereo not drawn),active: 16.4 µM,
COc1ccc2c(c1)CCc1c(C(=O)Nc3ccc(OC)c(OC)c3)noc1-2,"inconclusive [inhibitor, full curve, poor fit]",
COc1ccc(S(=O)(=O)N2CCC(C(N)=O)CC2)c2ccccc12,"inconclusive [inhibitor, partial curve, poor fit]",
Cc1nn2c(N3CCN(C(=O)c4ccco4)CC3)cc(C(C)(C)C)nc2c1-c1ccccc1,"inconclusive [inhibitor, single point]",
COc1ccc(-c2oc3c4c2C(=O)OCCOC4CCC3)cc1 (stereo not drawn),"inconclusive [inhibitor, partial curve]",
CC1=C(C(=O)Nc2nc3ccccc3s2)C(c2ccco2)C(C#N)=C(SCC(=O)NC2CCCCC2)N1 (stereo not drawn),active: 20.6 µM,
COc1ccc(CN(C)CC(=O)Nc2ccc(SC(F)F)cc2)cc1OC,"inconclusive [inhibitor, single point]",
Cc1ccc(C2CC2c2n[nH]c(=S)n2-c2cccc(C)c2)cc1 (stereo not drawn),active: 16.4 µM,
CCNC(=O)C1(C)CCCN(C(=O)c2ccc3c(c2)C(C)(C)CCC3(C)C)C1 (stereo not drawn),active: 6.51 µM,
CCN(CC)CCCNC(=O)c1cc(-c2cccc(Cl)c2)on1,"inconclusive [inhibitor, single point]",
CO/N=C/C(C(C)=O)C(=O)Nc1ccc(Cl)cc1Cl (stereo not drawn),"inconclusive [inhibitor, partial curve]",
